Measured values from PubChem BioAssay AID1468 (National Center for Advancing Translational Sciences (NCATS), 2008).
The campaign covered roughly 280,000 compounds. About 1,100 (0.39%) were called active. The inconclusive results got no clear call from the source; some entries with a clear call stand among them for comparison. Calls follow the shape of the dose curve; as a rule, active = well fitted inhibition curve with a large enough effect; inconclusive = small, poorly fitted or top-dose-only effect, or effect the other way; inactive = flat fitted curve, though single readings scatter. No potency is given beside an inconclusive call; the fits are too rough.

target: Microtubule-associated protein tau (Homo sapiens) (UniProt P10636); test: qHTS for Inhibitors of Tau Fibril Formation, Fluorescence Polarization; conditions: K18 P301L tau heparin fibrillization, Alexa594 FP, 6 h; series mostly up to 57.7 µM; activity, negative = inhibition: at the top concentration; also: nearly all actives have a fitted effect of over 55% in size
How it was run: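 Read-out: fluorescence polarization of Alexa 594-labeled tau (0.24 uM), 555 nm excitation, 632 nm emission. Mixtures held 15 uM unlabeled K18 P301L, compound and 20 uM heparin, pH 7 acetate buffer, incubated 6 hr at 37 C.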
% is scaled to controls: 0 for no effect and ±100 for the full control effect; potency is read from the fitted curve at half-maximal effect; tags tell the direction and shape of the fitted curve.

Sequence of UniProt P10636 (P10636 whole entry, looked up): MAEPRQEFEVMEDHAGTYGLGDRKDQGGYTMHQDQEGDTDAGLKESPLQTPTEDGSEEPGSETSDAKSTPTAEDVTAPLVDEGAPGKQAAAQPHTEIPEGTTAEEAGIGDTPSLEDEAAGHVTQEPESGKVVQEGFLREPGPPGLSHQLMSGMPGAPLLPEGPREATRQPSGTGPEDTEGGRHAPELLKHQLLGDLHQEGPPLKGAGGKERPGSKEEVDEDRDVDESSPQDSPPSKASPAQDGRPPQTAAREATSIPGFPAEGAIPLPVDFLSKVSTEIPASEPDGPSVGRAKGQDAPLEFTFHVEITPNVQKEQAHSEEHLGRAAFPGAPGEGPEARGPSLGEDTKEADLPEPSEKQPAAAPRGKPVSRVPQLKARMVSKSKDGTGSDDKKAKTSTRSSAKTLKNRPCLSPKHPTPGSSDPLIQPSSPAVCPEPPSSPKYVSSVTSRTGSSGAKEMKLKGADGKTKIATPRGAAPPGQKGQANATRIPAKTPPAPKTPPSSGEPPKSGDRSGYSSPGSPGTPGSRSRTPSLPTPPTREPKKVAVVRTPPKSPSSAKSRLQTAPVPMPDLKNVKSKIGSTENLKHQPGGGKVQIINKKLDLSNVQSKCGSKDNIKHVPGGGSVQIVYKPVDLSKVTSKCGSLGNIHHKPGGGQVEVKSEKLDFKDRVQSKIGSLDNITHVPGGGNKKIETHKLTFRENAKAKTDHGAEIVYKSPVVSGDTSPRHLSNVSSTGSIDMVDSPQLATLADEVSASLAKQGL

SMILES	Potency	activity, negative = inhibition
Cc1cc2c(c(=O)o1)C(c1ccc([N+](=O)[O-])o1)C(C#N)=C(N)O2 (stereo not given)	inconclusive [inhibitor, partial curve]	–
CCN(CC)c1nc(Nc2ccc(Cl)cc2)nc(OCC#N)n1	inconclusive [inhibitor, partial curve]	–
COc1ccc(-c2nc(SCC(=O)NC3CCCC3)c(-c3ccc(F)cc3)[nH]2)cc1OC	inconclusive [activator, partial curve]	–
Cc1cc(N=Nc2ccc(Cl)cc2)cc(CN2CCCC2)c1O	inconclusive [activator, partial curve]	–
CC1(C)Cc2nc3sc4c(=O)n(Cc5ccccc5)cnc4c3cc2CS1	inconclusive [inhibitor, single point]	–
Clc1ccc(-n2ncc3c(NCc4ccco4)ncnc32)cc1	inconclusive [inhibitor, partial curve]	–
CCc1ccc(OCC(=O)NC2CC(C)(C)NC(C)(C)C2)cc1	–	inactive: -5.33%
CCOC(=O)N1CCN(C(=O)C2CC(=O)N(c3ccc(OC)cc3)C2c2ccc(OC)cc2)CC1 (stereo not given)	–	inactive: 7.47%
CCOc1ccc(N2CC(NC(=O)c3ccc(S(=O)(=O)N4CCOCC4)cc3)CC2=O)cc1 (stereo not given)	–	inactive: -3.05%
COc1ccc(C(=O)OCC(=O)Nc2ccc(Cl)c(C(F)(F)F)c2)c(OC)c1OC	inconclusive [inhibitor, full curve]	–
N#Cc1ccc(NC(=O)COCc2cc(-c3ccc4c(c3)OCO4)on2)cc1	inconclusive [inhibitor, single point]	–
Cc1ccc(NC(=O)CN2C(=O)N/C(=C\c3cccnc3)C2=O)cc1	inconclusive [inhibitor, single point]	–
CCOc1ccc(CNC(=O)CCn2c(=O)c3cccn3c3cccnc32)cc1	–	inactive: 6.62%
CCCOc1ccc(-c2c(C(=O)N/N=C/c3ccc(OCC)cc3)nnn2-c2nonc2N)cc1	inconclusive [inhibitor, partial curve]	–
COc1ccc(C(=O)N/N=C/c2ccc(OC)c(OS(=O)(=O)c3ccccc3)c2)cc1	inconclusive [inhibitor, partial curve]	–
Cc1nc2sc(C(c3ccc(F)cc3)N3CCN(C(=O)c4ccco4)CC3)c(O)n2n1 (stereo not given)	inconclusive [inhibitor, full curve, poor fit]	–
COc1cccc(Nc2nc(N)c([N+](=O)[O-])c(NCc3ccco3)n2)c1	active: 3.16 µM	–
COC(=O)CSc1nnc(SCc2ccc(Cl)cc2)s1	–	inactive: -10.7%
CC(NS(=O)(=O)c1cccc(Cl)c1)C(=O)Nc1ccc(-c2nc3ccccc3s2)cc1 (stereo not given)	inconclusive [inhibitor, partial curve]	–
O=C(NCc1csc2ccc(Cl)cc12)Nc1ccccc1	inconclusive [inhibitor, single point]	–
O=C(Cn1cc(S(=O)(=O)N2CCN(c3ccccc3F)CC2)c2ccccc2c1=O)Nc1cccc(C(F)(F)F)c1	active: 14.1 µM	–
COC(=O)c1c(SC)nc2ccccc2c1OCc1ccc(C)cc1C	inconclusive [inhibitor, partial curve]	–
CCC(C)NC(C(=O)Nc1ccc(Cl)c([N+](=O)[O-])c1)c1ccccc1 (stereo not given)	–	inactive: 6.72%

SMILES	Potency	activity, negative = inhibition
O=C(O)C1=C(OCc2ccc(F)c(F)c2)C(=O)NCC1	–	inactive: 2.73%
COc1cc(C(=O)Nc2ccc(Cl)c(-c3nc4ncccc4o3)c2)cc(OC)c1OC	inconclusive [inhibitor, partial curve, poor fit]	–
CCOc1cccc(CC(=O)N2CCc3c([nH]c4ccccc34)C2c2ccc(C)cc2)c1OCC (stereo not given)	–	inactive: 5.53%
COc1ccc(C(=O)Nc2ccc3c(c2)N(C2CCCC2)C(=O)c2ccccc2S3)cc1OC	inconclusive [inhibitor, single point]	–
CSc1ccc(/C=C/c2ccc3cccc(O)c3n2)cc1	–	inactive: -2.03%
CCNC(=S)NNc1ccccc1	inconclusive [inhibitor, partial curve]	–
CCCCCCCc1cc2ccccc2c(=O)o1	inconclusive [inhibitor, single point]	–
Cc1cccc(OCCn2c(-c3ccco3)nc3ccccc32)c1	–	inactive: 12.2%
COc1ccc(OC)c(NC(=O)c2c(NCc3ccc(C)o3)sc3c2CCCCC3)c1	inconclusive [inhibitor, single point]	–
O=C(NNC(=S)Nc1ccc(Cl)cc1Cl)C1CC1	–	inactive: 4.59%
CCCN1C(=O)/C(=C/c2ccc(N3CCOCC3)cc2)NC1=S	inconclusive [activator, full curve]	–
COc1cccc(NC(=O)C2CC(=O)N(C)C(=Nc3cccc(F)c3)S2)c1 (stereo not given)	inconclusive [inhibitor, partial curve]	–
COc1ccc(S(=O)(=O)NC2(C(F)(F)F)NC(=O)N(CCc3ccc(OC)c(OC)c3)C2=O)cc1 (stereo not given)	–	inactive: 0.0941%
O=C(O)c1cccc(CN2C(=O)S/C(=C/c3ccccc3[N+](=O)[O-])C2=O)c1	inconclusive [inhibitor, single point]	–
Cc1nn(CC(=O)N2CCN(c3ccccc3)CC2)c(=O)c2cc3cc(F)ccc3n12	–	inactive: -0.0194%
Cc1csc2nc(CSc3nc4ccccc4o3)c(Br)n12	–	inactive: -1.17%
Cn1c(=O)c2c(nc(NCCO)n2C)n(C)c1=O	–	inactive: 5.46%
COc1ccc(N(CC(=O)Nc2ccc(C(N)=O)cc2)S(=O)(=O)c2ccc(C)c([N+](=O)[O-])c2)cc1	inconclusive [inhibitor, partial curve]	–
CCOC(=O)CC1C(=O)NCCN1S(=O)(=O)c1ccc(C)cc1 (stereo not given)	inconclusive [inhibitor, single point]	–
CCOc1cc(NC(=S)NCC2CCCO2)c(OCC)cc1NC(=O)c1ccccc1 (stereo not given)	inconclusive [activator, single point]	–
CCC1(C)Cc2nc3[nH]c(=S)n(-c4ccccc4)c(=O)c3cc2CO1 (stereo not given)	–	inactive: -6.63%
O=C(c1ccccc1)c1ccccc1C(=O)c1ccccc1	–	inactive: -7.82%
